The whole screen tested about 310,000 compounds, of which about 2,200 (0.71%) showed an effect of 50% or more. Effects have a minus sign here. This is one part of the list.
What follows are compounds tested against human ether-à-go-go-related gene (hERG) potassium channel (human, UniProt Q12809) (assay: primary screen, population patch clamp on CHO cells stably expressing hERG).
human ether-à-go-go-related gene (hERG) potassium channel, sequence (Q12809 whole entry, looked up): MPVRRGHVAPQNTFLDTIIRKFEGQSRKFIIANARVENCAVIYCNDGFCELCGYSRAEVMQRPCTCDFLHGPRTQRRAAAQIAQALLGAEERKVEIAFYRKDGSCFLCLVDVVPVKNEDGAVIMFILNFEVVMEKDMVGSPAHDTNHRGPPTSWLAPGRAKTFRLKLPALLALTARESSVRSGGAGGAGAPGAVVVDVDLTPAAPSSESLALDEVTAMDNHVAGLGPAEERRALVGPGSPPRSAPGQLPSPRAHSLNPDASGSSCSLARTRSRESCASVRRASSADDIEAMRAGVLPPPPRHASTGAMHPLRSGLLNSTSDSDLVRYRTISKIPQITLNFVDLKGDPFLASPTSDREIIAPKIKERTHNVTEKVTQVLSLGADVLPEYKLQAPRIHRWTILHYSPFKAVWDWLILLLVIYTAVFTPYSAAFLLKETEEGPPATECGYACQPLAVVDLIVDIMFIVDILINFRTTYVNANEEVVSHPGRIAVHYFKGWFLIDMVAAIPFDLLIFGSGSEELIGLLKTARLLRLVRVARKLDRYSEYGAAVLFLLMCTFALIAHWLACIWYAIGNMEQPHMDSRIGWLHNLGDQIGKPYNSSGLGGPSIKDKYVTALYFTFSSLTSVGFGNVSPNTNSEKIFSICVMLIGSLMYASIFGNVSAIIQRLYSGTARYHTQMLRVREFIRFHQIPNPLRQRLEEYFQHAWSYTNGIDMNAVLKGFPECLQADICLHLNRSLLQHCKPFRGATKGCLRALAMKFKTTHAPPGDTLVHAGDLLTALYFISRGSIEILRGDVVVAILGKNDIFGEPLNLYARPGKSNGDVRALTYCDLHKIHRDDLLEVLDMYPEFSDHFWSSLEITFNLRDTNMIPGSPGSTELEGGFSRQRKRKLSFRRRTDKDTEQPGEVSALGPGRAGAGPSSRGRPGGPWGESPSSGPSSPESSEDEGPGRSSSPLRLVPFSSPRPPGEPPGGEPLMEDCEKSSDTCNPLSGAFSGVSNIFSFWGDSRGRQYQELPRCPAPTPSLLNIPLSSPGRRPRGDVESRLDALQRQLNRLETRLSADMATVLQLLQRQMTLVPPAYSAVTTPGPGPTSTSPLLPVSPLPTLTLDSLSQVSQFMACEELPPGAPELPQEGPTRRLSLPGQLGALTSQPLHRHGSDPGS

| Compound | hERG current change (%, negative = inhibition) at 1uM [%] |
| --- | --- |
| COC(=O)c1cc(NC(=O)CC2NCCNC2=O)cc(C(=O)OC)c1 (stereo not shown) | 9.85 |
| O=C(CC(Cc1ccccc1)C(=O)O)Nc1ccc(Cl)c(Cl)c1 (stereo not shown) | 8.97 |
| Cc1ccc2cc3c(NC(=O)C4CCCO4)nn(CC(C)C)c3nc2c1 (stereo not shown) | 14 |
| CN(C)S(=O)(=O)N1CCC(Oc2cccc(C(=O)NC3CCCCC3)c2)CC1 | 2.87 |
| O=C(NCCCNC(=O)c1cnccn1)c1cccc(Cl)c1 | 13.6 |
| CC(=O)c1c(C)nn(CC(O)Cn2c3c(c4cc(C)ccc42)CCCC3=O)c1C (stereo not shown) | 13 |
| COc1cc(-c2noc(C)c2/C=C/c2cccc([N+](=O)[O-])c2)cc(OC)c1OC | 11 |
| CC(C)OCC(O)CN1CCN(C(c2ccccc2)c2ccccc2)CC1.Cl (stereo not shown) | -4.1 |
| CC(C)c1ccc(NC2CCCN(C(=O)c3ccsc3)C2)cc1 (stereo not shown) | 10.2 |
| COc1ccc(Cl)cc1S(=O)(=O)N1CCC(O)(c2ccc(Cl)cc2)CC1 | 12.1 |
| COc1ccccc1C(CC(=O)O)NS(=O)(=O)c1ccc2c(c1)N(C(C)=O)CC(C)O2 (stereo not shown) | 20 |
| COc1ccc(C(=O)NC(=S)N2CCCCC2)cc1[N+](=O)[O-] | 5.8 |
| CCCCN(C(=O)CSc1nnc(-c2ccc(OC)cc2)n1CC)c1c(N)n(Cc2ccccc2)c(=O)[nH]c1=O | 9.7 |
| O=C(NCc1ccccc1)NCC12CC3CC(CC(C3)C1)C2 | 10.3 |
| CNC(C(=O)c1ccccc1)C(OC(C)=O)c1cccc([N+](=O)[O-])c1.[O-][Cl+3]([O-])([O-])O (stereo not shown) | 13.4 |
| COc1ccc(C(=O)NN)cc1 | -8.52 |
| COc1ccc(S(=O)(=O)Nc2cccnc2)c(C)c1C | 2.39 |
| COc1ccccc1N1C(=NC(=O)CCC2CCCC2)SC2CS(=O)(=O)CC21 (stereo not shown) | 20.6 |
| NC(=O)c1ccsc1NC(=O)COC(=O)/C=C/c1ccc([N+](=O)[O-])cc1 | 11.1 |
| Cc1csc(=O)n1CCC(=O)OCC(=O)Nc1cccc(C#N)c1 | 3.97 |
| Cc1cc(C)cc(C(=O)N[C@@H](C)C(=O)N2CCC3(CC2)NCCc2[nH]cnc23)c1 | 16.9 |
| CN1CCN(C(=O)c2ccc3c(c2)N(Cc2cccc(Cl)c2)C(=O)c2ccccc2S3=O)CC1 (stereo not shown) | 1.34 |

| Compound | hERG current change (%, negative = inhibition) at 1uM [%] |
| --- | --- |
| CC(C)CCNC(=O)Cn1cc2c(n1)CCCCC2 | 11.3 |
| CCC(C)Sc1ccc([C@H]2N[C@@](C)(C(=O)OC)[C@H]3C(=O)N(CC)C(=O)[C@@H]23)cc1.O=C(O)C(F)(F)F (stereo partly shown) | 9.09 |
| c1ccc2c(c1)c1ccccc1n2CN1CCOCC1 | 10.2 |
| O=C(NNS(=O)(=O)c1ccc(F)cc1)c1ccc2c(c1)OCO2 | 2.24 |
| O=C(OCC(=O)N1CCCC1=O)c1ccc(F)c(S(=O)(=O)N2CCOCC2)c1 | -4.67 |
| COc1cccc(/C=N/NC(=O)c2cccc3ccccc23)c1 | 9 |
| COc1ccccc1N(C)S(=O)(=O)c1ccc(C(=O)Nc2ncc(C)s2)cc1 | 13.9 |
| COc1cc(OC)c(NC(=O)[C@@H]2CCC(=O)N2C2OC(=O)c3c2ccc(OC)c3OC)cc1Cl (stereo partly shown) | -13.6 |
| Br.C=CCn1c(=N)n(CC(=O)OCC)c2ccccc21 | 8.25 |
| Cc1ccc(C(=O)N/N=C/c2c(O)ccc3ccccc23)cn1 | 13.3 |
| CCCc1c(C(=O)Nc2ccc(OC)cc2)cnn1-c1ccccc1 | 10.8 |
| CN(CCNC(=O)c1cc2c(-c3ccccc3F)nn(C)c2s1)C1CCCCC1 | 10.7 |
| CC(C)Nc1nc(NC(C)C)nc(C(=O)OCCO)n1 | 16.3 |
| Nc1ccc(S(=O)(=O)Nc2cnc3ccccc3n2)cc1 | 8.84 |
| FC(F)(F)c1cccc(NCc2n[nH]c(=S)n2C2CCCCC2)c1 | 11.3 |
| O=C(CCn1nnc2ccccc21)Nc1nnc(Cc2ccccc2)s1 | 9.47 |
| O=C(/C=C/c1ccc2c(c1)OCO2)NCCSCc1ccc(Cl)cc1 | 17.9 |
| COc1ccc(C2=NN(CN3C(=O)C(=O)c4ccccc43)C(c3ccc(Br)cc3)C2)cc1 (stereo not shown) | 19.4 |
| COCCCNC(=O)c1ccc(Cn2c(=O)c3ccccc3n(CC(=O)NCc3ccco3)c2=O)cc1 | 6.89 |
| C#CCOCCOCCOCCNc1nc(N2CCN(C(=O)CCCCCCCCCCNC(=O)[C@H](CO)n3cc(CCCSC)nn3)CC2)nc(N2CCN(C(=O)CCCCCCCCCCNC(=O)[C@H](CCCN=C(N)N)n3cc(C[C@@H](C)CC)nn3)CC2)n1 | 10.7 |
| CC1CCN(c2ccccc2NC(=O)c2ccc([N+](=O)[O-])o2)CC1 | 16.1 |
| Cc1nn2c(-c3ccccn3)ccnc2c1Cl | 17.7 |

| Compound | hERG current change (%, negative = inhibition) at 1uM [%] |
| --- | --- |
| Cc1cnc(CN(C)Cc2c(C(=O)N3CCCCCCC3)nc3ccc(Cl)cn23)[nH]1 | 3.9 |
| CC(OC(=O)c1oc2ccccc2c1COc1ccccc1)C(=O)NC(N)=O (stereo not shown) | -6.83 |
| CN1CC(c2ccccn2)C2(SC(=S)N(Cc3ccccc3)C2=O)C12C(=O)Nc1ccccc12 (stereo not shown) | 0.725 |
| CCC(=O)N1CCN(c2ccc(NC(=O)c3ccc4ccccc4c3)cc2)CC1 | 19.1 |
| COc1cc(Nc2nc3ccccc3n3nnnc23)cc(OC)c1OC | 15.5 |
| CC(C)[C@H](NC(=O)N1CCn2c1nc1ccccc12)C(=O)NCC1CCCO1 (stereo partly shown) | 5.34 |
| Cc1ccc(CNC(=O)COC(=O)CCC(=O)c2cccs2)cc1 | 9.05 |
| Cc1ccc(S(=O)(=O)c2c(COC(=O)c3cccc(Cl)c3)c(-c3ccccc3)nn2C)cc1 | -12.9 |
| CCCc1ccc2c(N)c(C#N)sc2n1 | 1.34 |
| Cc1cccc(N=Cc2c(O)n(C)c(=O)n(C)c2=O)c1 | 11 |
| O=C(COC(=O)Cn1[nH]c(=O)c2ccccc2c1=O)NNC(=O)c1ccccc1 | 14.1 |
| Cc1ccccc1N(C(=O)Cn1nnc(-c2ccc(F)cc2)n1)C(C(=O)NC(C)(C)C)c1ccncc1 (stereo not shown) | 5.87 |
| CN(C)Cc1ccccc1Sc1ccc2c(c1)CCCC2.O=C(O)C(=O)O | 8.85 |
| COc1ccccc1N1CCN(Cc2nc3ccsc3c(=O)[nH]2)CC1 | 10.4 |
| Cc1ccnc(NC(=O)C2CCC(CNc3c(N4CCCC4)c(=O)c3=O)CC2)c1 (stereo not shown) | -2.38 |
| COc1ccc(NC(=O)c2ccc(COCC(F)(F)C(F)F)cc2)cc1OC | 5.57 |
| Cc1cccc(NC(=O)NNC(=O)c2ccc3ccccc3c2)c1 | 19.2 |
| CCOC(=O)c1sc2nc3c(cc2c1N)COC(C(C)C)C3 (stereo not shown) | 5.75 |
| Cc1c(NC(=O)CSCc2ccco2)c(=O)n(-c2ccccc2)n1C | 5.21 |
| CC(C)Cc1cc(CN2CCC(CO)(Cc3cccc(C(F)(F)F)c3)CC2)[nH]n1 | -66 |
| O=C(N/N=C/c1c(O)ccc2ccccc12)c1ccc(CO)nc1 | 12.8 |
| COc1ccc(C(=O)CSc2cc(C)nc3nc(C)nn23)cc1OC | 6.41 |

| Compound | hERG current change (%, negative = inhibition) at 1uM [%] |
| --- | --- |
| COC(=O)Nc1ccc(S(=O)(=O)N(C)C)cc1 | 3.02 |
| Cc1ccc(/C=N/N(C)S(=O)(=O)c2ccc(C)cc2)cc1 | 3.19 |
| CC(=O)c1ccc(N2CCN(C(=S)Nc3cc(C)ccc3C)CC2)cc1 | 3.76 |
| O=C(CC1SC(N2CCCC2)=NC1=O)Nc1ccc(C(=O)Nc2ccccc2)cc1 (stereo not shown) | 13.9 |
| COc1cccc(C(=O)NNC(=O)c2ccc3ccccc3c2O)c1 | 11.3 |
| COC(=O)C1=C(c2cc3ccccc3s2)C[C@@H]2CC[C@H]1N2C(=O)N1CCCCC1 | 2.41 |
| Cc1ccc(C)c(NCc2ccccc2CO)c1 | -2.79 |
| Cc1cc(=O)n2[nH]c(NCc3c(F)cccc3Cl)nc2n1 | 15 |
| COc1ccccc1C(=O)N1CCN(Cc2nc3cc([N+](=O)[O-])ccc3n2C)CC1 | -16.4 |
| COc1ccc(CNC(=O)CSc2nc3ccc(C)cc3[nH]2)cc1OC | 16.6 |
| CCc1nn(CCCC(=O)NCc2ccccc2Br)c(=O)c2cc3occc3n12 | -10.5 |
| CCc1ccccc1OCC(=O)Nc1nc(-c2cccnc2)cs1 | 10.6 |
| CC(Oc1ccccc1)C(=O)N1CCN=C1SCc1cccc(F)c1 (stereo not shown) | 1.87 |
| CCOC(=O)C1CCN(C(=O)Nc2cccc(OC)c2)CC1 | 14.4 |
| COCCn1cnnc1SCC(=O)Nc1cccc(S(=O)(=O)N2CCCCCC2)c1 | -16.8 |
| CC(=O)N1CCN(c2ccccc2NC(=O)COc2cc(C)cc(C)c2)CC1 | -18.3 |
| COCCCNC(=O)C1=CCN(S(=O)(=O)c2ccc(OC)cc2)CC1 | 10.6 |
| CC(C)c1ccc(N2C(=NC(=O)C3CCCO3)SC3CS(=O)(=O)CC32)cc1 (stereo not shown) | 14.4 |
| Cl.Nc1nc(N2CCN(C(=O)c3ccco3)CC2)nc2ccc(Br)cc12 | -5.82 |
